Where “and” joins values, the source holds several entries; their conditions need not be identical. Equal values may be shown once. Screen size: about 290,000 compounds; about 2,100 (0.72%) were called active. Inconclusive means that the source gave no clear call. Such entries were picked first, then a sample of the others. The call rests on the fitted dose curve; in most records, active means well fitted inhibition curve with a large enough effect; inconclusive means small, poorly fitted or top-dose-only effect, or effect the other way; inactive means flat fitted curve, though single readings scatter. Potencies beside an inconclusive call are fits to weak or partial responses and may not hold up.
These molecules were tested against Fructose-bisphosphate aldolase (Giardia intestinalis (strain ATCC 50803 / WB clone C6)) (UniProt A8B2U2) (assay: qHTS Assay for Inhibitors of Fructose-1,6-bisphosphate Aldolase from Giardia Lamblia). Settings: purified Giardia FBPA; activity, negative = inhibition: at 59.6 µM (top of the series) unless noted.
Sequence of UniProt A8B2U2 (A8B2U2 whole entry, looked up): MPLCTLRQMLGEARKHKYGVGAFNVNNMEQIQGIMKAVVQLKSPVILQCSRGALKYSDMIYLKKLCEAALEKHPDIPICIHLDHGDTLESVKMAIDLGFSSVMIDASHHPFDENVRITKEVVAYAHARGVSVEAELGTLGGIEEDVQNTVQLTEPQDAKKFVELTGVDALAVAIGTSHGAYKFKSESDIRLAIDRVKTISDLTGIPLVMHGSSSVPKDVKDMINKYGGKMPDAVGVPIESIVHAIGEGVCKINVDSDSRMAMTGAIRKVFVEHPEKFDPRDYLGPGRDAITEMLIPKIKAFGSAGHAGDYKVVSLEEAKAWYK
Summary of the method: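 Giardia FBPA (40 nM reagent) was preincubated 10 min at RT with compound (up to 57.5 uM final), then substrate plus GAPDH/TPI/NAD/arsenate coupling system with diaphorase/resazurin was added; resorufin fluorescence (525/598 nm) was read after 20 min.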
Further: nearly all actives have a fitted effect of over 55% in size.
On the % scale 0 is the no-effect control and ±100 the full control effect; potency means the concentration at half of the fitted maximal effect; tags describe the fitted curve by direction and shape.

Q: How did the Potency turn out when S=C(N/N=C/c1ccc(Br)cc1)N1CCCCC1 was run?
A: inconclusive: 22.4 µM [activator, single point]

Q: For COc1ccc(CN2CCN(Cc3ccc4ccccc4c3)CC2)cc1OC, which Potency is on record?
A: inconclusive: 25.1 µM [inhibitor, partial curve]

Q: Which “activity, negative = inhibition” value does the source give for NC(=O)Cn1nnc(-c2ccc(C(F)(F)F)cc2)n1 here?
A: inactive: 6.18%

Q: How did the Potency turn out when COc1ccc(CNC2CCCc3ccccc32)c(OC)c1 (stereo unspecified) was run?
A: inconclusive: 15.8 µM [inhibitor, partial curve]

Q: With O=C1CN(/N=C/c2ccc([N+](=O)[O-])o2)C(=O)N1 as the molecule, how does the Potency read?
A: inconclusive: 25.1 µM [inhibitor, partial curve]

Q: For O=C(N/N=C/c1ccc([N+](=O)[O-])s1)C(O)c1ccccc1 (stereo unspecified), which Potency is on record?
A: inconclusive: 17.7 µM [inhibitor, partial curve]

Q: CCOC(=O)C1=C(C)NC(=O)CC1c1cc2c(cc1[N+](=O)[O-])OCO2 (stereo unspecified) was tested. Which Potency did it give?
A: active: 12.6 µM

Q: How did the Potency turn out when CCOC(=O)C1CCN(C(=O)CSc2nc3ncccc3[nH]2)CC1 was run?
A: inconclusive: 17.8 µM [inhibitor, partial curve]

Q: With COc1ccc(-c2oc3ccccc3c2C(=O)OCc2ccccc2)cc1 as the molecule, how does the “activity, negative = inhibition” value read?
A: inactive: 13.4%

Q: For CCOc1c(Cl)cc(/C=N/NC(N)=S)cc1OC, which Potency is on record?
A: inconclusive: 15.8 µM [inhibitor, single point]

Q: For CCOc1ccccc1NC(=O)C(NCC1(N2CCCCC2)CCCCC1)c1ccccc1 (stereo unspecified), which Potency is on record?
A: inconclusive: 19.9 µM [inhibitor, partial curve]

Q: With CCOC(=O)c1cnc(SSc2ncc(C(=O)OCC)c(N)n2)nc1N as the molecule, how does the “activity, negative = inhibition” value read?
A: inactive: -15.8%

Q: For COCC(=O)Nc1nc(-c2ccc(C)cc2)c(C)s1, which “activity, negative = inhibition” value is on record?
A: inactive: 1.99%

Q: Which Potency does the source give for N#CCCn1cnc2c(=S)nc[nH]c21 here?
A: active: 14.1 µM

Q: With O=C(N/N=C(\c1ccccc1)c1cccnc1)c1cc(O)ccc1O as the molecule, how does the “activity, negative = inhibition” value read?
A: inactive: -24.8%

Q: How did the Potency turn out when O=C(O)c1cccc(C(=O)O)n1 was run?
A: active: 28.2 µM

Q: COc1ccc(/C=C2\COc3ccccc3C2=O)c(OC)c1 was tested. Which “activity, negative = inhibition” value did it give?
A: inactive: -0.725%

Q: How did the “activity, negative = inhibition” value turn out when COC(=O)COc1cccc2c(=O)n(CC(=O)N3CCCc4ccccc43)ccc12 was run?
A: inactive: 0.289%

Q: How did the Potency turn out when COc1ccc2c(c1)[n+](=O)c(C(C)=O)c(C)n2[O-] was run?
A: inconclusive: 14.1 µM [inhibitor, partial curve]

Q: How did the Potency turn out when Cc1c(N=Nc2c(O)n(-c3ccc(Br)cc3)c(=O)[nH]c2=O)c(=O)n(-c2ccccc2)n1C was run?
A: active: 15.8 µM

Q: CC(C)C[C@@H](CSc1ccc(Br)cc1)N1CCN(CCc2ccccc2)CCC1=O was tested. Which “activity, negative = inhibition” value did it give?
A: inactive: 0.477%

Q: With CN1CCN(c2ccc(NC(=O)c3ccccc3Br)cc2)CC1 as the molecule, how does the “activity, negative = inhibition” value read?
A: inactive: 3.57%

Q: For Cc1ccc(Nc2nc(-c3ccc(C)cc3)c(CC(=O)O)s2)cc1, which “activity, negative = inhibition” value is on record?
A: inactive: -19.7%

Q: With O=C(O)CCNc1ccc2c(c1)OCCO2 as the molecule, how does the Potency read?
A: inconclusive: 12.6 µM [inhibitor, partial curve]

Q: How did the Potency turn out when C=Cn1c(C(=O)O)ccc1-c1ccc(CC)cc1 was run?
A: inconclusive: 9.98 µM [activator, partial curve]

Q: COc1ccc(/C=C2\CN(Cc3ccccc3)C/C(=C\c3ccc(OC)cc3)C2=O)cc1 was tested. Which Potency did it give?
A: inconclusive: 22.3 µM [inhibitor, single point]

Q: For CCN(CC)CCOC(=O)C(Cc1cccc2ccccc12)CC1CCCO1 (stereo unspecified), which Potency is on record?
A: inconclusive: 15.8 µM [inhibitor, partial curve] and inconclusive: 17.8 µM [inhibitor, single point]

Q: Which Potency does the source give for Cc1cc(-n2c(C)cc(C(=O)COc3ccc4ccc(=O)oc4c3)c2C)no1 here?
A: inconclusive: 17.7 µM [inhibitor, single point]

Q: With Cc1cc(O)c(C(=O)/C=C/c2ccccc2O)c(=O)o1 as the molecule, how does the “activity, negative = inhibition” value read?
A: inactive: -10.5%

Q: For COc1cccc2sc(N3CCN(c4nc5ccccc5s4)CC3)nc12, which “activity, negative = inhibition” value is on record?
A: inactive: -0.682%

Q: For CN1CCCc2cc(C#N)c(=O)[nH]c21, which Potency is on record?
A: active: 9.98 µM

Q: How did the Potency turn out when CCOC(=O)c1c(-c2ccco2)csc1N was run?
A: inconclusive: 9.98 µM [inhibitor, partial curve]

Q: For COC(=O)c1c(NC(=O)/C=C/C(=O)O)sc(Cc2ccccc2)c1C, which “activity, negative = inhibition” value is on record?
A: inactive: 26.7%

Q: O=C(CSC(=S)N1CCOCC1)Nc1ccc(S(=O)(=O)Nc2ncccn2)cc1 was tested. Which Potency did it give?
A: inconclusive: 39.8 µM [inhibitor, single point]

Q: How did the Potency turn out when Cn1c(-[n+]2c(-c3ccccc3)cc(-c3ccccc3)cc2-c2ccccc2)nc2cc([N+](=O)[O-])ccc21 was run?
A: inconclusive: 44.6 µM [inhibitor, single point]

Q: CC1CCN(CC(=O)NCCc2ccc(F)cc2)CC1 was tested. Which Potency did it give?
A: inconclusive: 17.7 µM [inhibitor, partial curve]

Q: With COc1ccc(Nc2nc(OC)nc(N3CCOCC3)n2)cc1 as the molecule, how does the “activity, negative = inhibition” value read?
A: inactive: -4.8%

Q: For Cc1ccccc1C(=O)Nc1nnc(-c2cccnc2)o1, which Potency is on record?
A: active: 15.8 µM

Q: Cc1ccc(S(=O)(=O)CCC(=O)NCc2ccc(Cl)cc2)cc1 was tested. Which “activity, negative = inhibition” value did it give?
A: inactive: 1.66%

Q: How did the Potency turn out when CC(=O)[C@@]1(O)CC[C@H]2[C@@H]3C[C@H](C)C4=CC(=O)CC[C@]4(C)[C@H]3CC[C@@]21C was run?
A: inactive

Q: How did the Potency turn out when O=C(CC1Nc2cccc3cccc(c23)NC1=O)Nc1ccccc1 (stereo unspecified) was run?
A: inconclusive: 1.26 µM [inhibitor, full curve]

Q: For CCC(NC(=O)c1ccncc1)c1ccccc1 (stereo unspecified), which “activity, negative = inhibition” value is on record?
A: inactive: 4.66%

Q: How did the Potency turn out when O=c1oc2ccccc2nc1/C=C(\O)c1ccccc1 was run?
A: inconclusive: 19.9 µM [inhibitor, partial curve]

Q: How did the Potency turn out when CN(C)C1C(=O)C(C(N)=O)=C(O)[C@@]2(O)C(=O)C3=C(O)c4c(O)cccc4[C@@](C)(O)C3C[C@@H]12 (stereo partly specified) was run?
A: inconclusive: 9.98 µM [inhibitor, full curve]

Q: With CN1CCN(NC(=O)c2cc(-c3cccc(Cl)c3)nc3ccccc23)CC1 as the molecule, how does the “activity, negative = inhibition” value read?
A: inactive: 6.38%

Q: CN(CC1CCCN(CCc2ccccc2F)C1)C(=O)c1ccoc1 (stereo unspecified) was tested. Which “activity, negative = inhibition” value did it give?
A: inactive: 8.73%

Q: For Clc1ccc(OCCCN2CCc3ccccc3C2)c(Br)c1, which Potency is on record?
A: inconclusive: 35.5 µM [inhibitor, single point]

Q: Cc1cc(C)n(CC(=O)NC2C(=O)N3C(C(=O)O)=C(CSc4nnc(C)s4)CSC23)n1 (stereo unspecified) was tested. Which Potency did it give?
A: active: 12.6 µM

Q: Which “activity, negative = inhibition” value does the source give for Cc1ccc(C(=O)NCC(=O)OCC(=O)Nc2cc(C)c(C)cc2[N+](=O)[O-])cc1 here?
A: inactive: 0.921%

Q: Which Potency does the source give for CCOC(=O)c1nn(-c2ccccc2C)c(=O)c2c(N)scc12 here?
A: inconclusive: 1.12 µM [inhibitor, full curve]

Q: Which Potency does the source give for O=C(O)Cc1sc(-c2ccccc2Cl)nc1-c1ccccc1 here?
A: inconclusive: 7.06 µM [activator, full curve]

Q: For O=c1cc2c(=O)oc3cc(O)c(O)oc3c2c(O)c1O, which Potency is on record?
A: active: 2.81 µM

Q: Which Potency does the source give for CCc1cccc(C)c1NC(=S)N(CCCN1CCOCC1)Cc1cccnc1 here?
A: active: 15.8 µM

Q: Which Potency does the source give for Cc1ccc(/C=C2\SC(N3CCN(C(c4ccccc4)c4ccccc4)CC3)=NC2=O)o1 here?
A: inconclusive: 17.7 µM [inhibitor, partial curve]

Q: With CCNC(=S)NS(=O)(=O)c1ccc(Cl)cc1 as the molecule, how does the Potency read?
A: active: 7.08 µM

Q: C#CCOCCOCCOCCNc1nc(N2CCN(C(=O)[C@H](CCCCN)n3cc([C@@H](N)C(C)CC)nn3)CC2)nc(N2CCN(C(=O)[C@H](CCCCN)n3cc([C@@H](N)CC(C)C)nn3)CC2)n1 (stereo partly specified) was tested. Which “activity, negative = inhibition” value did it give?
A: inactive: -1.17%

Q: Which Potency does the source give for COC(=O)CCc1c(C)[nH]c(=S)[nH]c1=O here?
A: inconclusive: 19.9 µM [inhibitor, single point]

Q: CC(C)[C@H]1c2ccc(F)cc2CC[C@@]1(CCN(C)CCCc1nc2ccccc2[nH]1)OC(=O)C1CC1 was tested. Which Potency did it give?
A: inconclusive: 19.9 µM [inhibitor, partial curve]

Q: How did the Potency turn out when COc1cccc(-c2nc(=S)c3c(o2)CCCC3)c1 was run?
A: inconclusive: 35.4 µM [inhibitor, single point]

Q: Which “activity, negative = inhibition” value does the source give for CCOc1ccc(CCNc2cc(C)nc3ncnn23)cc1OCC here?
A: inactive: 0.792%

Q: COc1ccc(CN2CCN(Cc3cccc(F)c3)CC2)cc1OC was tested. Which Potency did it give?
A: inconclusive: 15.8 µM [inhibitor, partial curve]

Q: With CCCCn1c(SCC(=O)NCc2ccco2)nc2ccc(N3CCOCC3)cc2c1=O as the molecule, how does the Potency read?
A: inconclusive: 1.99 µM [inhibitor, full curve]

Q: With CN(C)CCCNCC(=O)Nc1ccc(Cl)cc1C(=O)c1ccccc1 as the molecule, how does the Potency read?
A: inconclusive: 19.9 µM [inhibitor, partial curve]

Q: With O=[N+]([O-])/C=C/c1cc2ccccc2[nH]1 as the molecule, how does the “activity, negative = inhibition” value read?
A: inactive: -7.94%

Q: Which “activity, negative = inhibition” value does the source give for CC1CN(c2ccc([N+](=O)[O-])c(NCCOc3ccc(Cl)cc3)c2)CC(C)N1 (stereo unspecified) here?
A: inactive: 2.01%

Q: Cn1[nH]c(-c2ccccc2)c(/C=N/O)c1=O was tested. Which Potency did it give?
A: active: 15.8 µM

Q: With CC1(C)CC(=O)C2=C(C1)OC(N)=C(C#N)C2c1ccccc1[N+](=O)[O-] (stereo unspecified) as the molecule, how does the Potency read?
A: inconclusive: 14.1 µM [inhibitor, partial curve]

Q: How did the “activity, negative = inhibition” value turn out when CCCCCCCCCCN1CCOCCOCCN(CCCCCCCCCC)CCOCCOCC1 was run?
A: inactive: 2.13%

Q: How did the Potency turn out when CC(C)CN1CCC2(CC1)CCN(C(=O)c1csnn1)CC2 was run?
A: inconclusive: 15.8 µM [inhibitor, single point]

Q: How did the Potency turn out when Oc1c(C(c2ccccn2)N2CCC(Cc3ccccc3)CC2)cc(Cl)c2cccnc12 (stereo unspecified) was run?
A: inconclusive: 28.1 µM [inhibitor, single point]

Q: How did the Potency turn out when Cc1[nH]n(S(=O)(=O)c2ccccc2)c(=O)c1N=Nc1cccc(Cl)c1 was run?
A: inconclusive: 17.8 µM [inhibitor, partial curve]

Q: S=c1[nH]nc(-c2cccnc2)o1 was tested. Which Potency did it give?
A: inconclusive: 17.7 µM [inhibitor, single point]

Q: With COc1ccc(C/C(C)=N/NC(=S)Nc2ccccc2F)cc1 as the molecule, how does the Potency read?
A: inconclusive: 11.2 µM [inhibitor, partial curve]

Q: With COc1ccc(N(C(=O)c2snc(C(N)=O)c2N)C(C(=O)NCc2ccc(F)cc2)c2ccc(C)o2)c(OC)c1 (stereo unspecified) as the molecule, how does the “activity, negative = inhibition” value read?
A: inactive: -7.62%

Q: Which Potency does the source give for Cn1cnc([N+](=O)[O-])c1Sc1ncccc1N here?
A: active: 17.7 µM

Q: For Cc1ccc(NC(=O)c2cccnc2C(=O)O)nc1, which Potency is on record?
A: inconclusive: 10 µM [inhibitor, partial curve]
